Measured values taken from paper PMC7645679.
No constants are given. Whether binding was seen depends on the method and setting. Some entries that bind do so weakly or less than the wild type. Where a sequence is shown, tags or fusion partners need not be part of it.

How the values were obtained:
Assay in all cases: fluorescent three-hybrid (F3H); GFP-tagged bait tethered to a LacO array by GFP nanobody–LacR in BHK-LacO cells; recruitment of mKate2-tagged prey read as Pearson correlation of green and red channels at the array; cells fixed 24 h after transfection
[1] = target: T1, BORIS/CTCFL, GFP fusion (F3H) (UniProt A2APF3)
T1 sequence: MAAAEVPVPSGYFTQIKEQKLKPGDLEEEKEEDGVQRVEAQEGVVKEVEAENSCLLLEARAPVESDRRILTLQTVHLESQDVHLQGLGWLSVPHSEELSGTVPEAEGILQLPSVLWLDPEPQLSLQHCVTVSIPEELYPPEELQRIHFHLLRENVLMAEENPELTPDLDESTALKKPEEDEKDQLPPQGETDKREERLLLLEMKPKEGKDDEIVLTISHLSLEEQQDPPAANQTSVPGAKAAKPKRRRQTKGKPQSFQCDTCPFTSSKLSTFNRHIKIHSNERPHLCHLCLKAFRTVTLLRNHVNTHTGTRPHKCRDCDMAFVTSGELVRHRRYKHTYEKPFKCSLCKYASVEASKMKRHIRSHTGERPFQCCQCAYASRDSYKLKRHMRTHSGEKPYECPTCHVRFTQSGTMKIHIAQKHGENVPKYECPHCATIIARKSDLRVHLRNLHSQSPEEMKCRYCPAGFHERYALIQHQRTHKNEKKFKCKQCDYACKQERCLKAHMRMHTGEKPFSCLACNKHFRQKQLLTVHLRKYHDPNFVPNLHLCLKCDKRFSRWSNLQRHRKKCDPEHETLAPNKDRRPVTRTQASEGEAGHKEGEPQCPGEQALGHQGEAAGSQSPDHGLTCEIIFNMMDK

[2] = target: T2, CTCF (mouse), GFP fusion tethered to the LacO array in the fluorescent three-hybrid assay (mouse) (UniProt Q61164)
T2 sequence: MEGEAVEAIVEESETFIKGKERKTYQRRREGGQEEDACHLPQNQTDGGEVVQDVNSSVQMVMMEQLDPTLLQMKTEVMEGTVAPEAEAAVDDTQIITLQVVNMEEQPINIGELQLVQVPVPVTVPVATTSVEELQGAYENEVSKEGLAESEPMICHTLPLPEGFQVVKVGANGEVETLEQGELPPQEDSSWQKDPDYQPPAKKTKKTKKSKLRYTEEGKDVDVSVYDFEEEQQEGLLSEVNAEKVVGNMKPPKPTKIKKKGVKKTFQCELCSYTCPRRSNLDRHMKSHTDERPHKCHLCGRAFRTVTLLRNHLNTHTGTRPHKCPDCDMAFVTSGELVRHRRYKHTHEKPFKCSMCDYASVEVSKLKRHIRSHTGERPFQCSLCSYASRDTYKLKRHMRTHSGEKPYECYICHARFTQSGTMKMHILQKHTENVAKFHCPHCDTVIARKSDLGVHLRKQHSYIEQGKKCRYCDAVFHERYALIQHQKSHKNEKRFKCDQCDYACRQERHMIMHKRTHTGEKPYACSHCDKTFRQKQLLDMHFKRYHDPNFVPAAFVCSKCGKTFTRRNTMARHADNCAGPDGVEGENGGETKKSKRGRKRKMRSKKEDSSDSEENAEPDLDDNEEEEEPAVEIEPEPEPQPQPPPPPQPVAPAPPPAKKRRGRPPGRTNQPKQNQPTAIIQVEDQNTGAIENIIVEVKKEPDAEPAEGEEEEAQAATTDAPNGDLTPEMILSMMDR

[3] = target: T3, CTCF N(13–33) fused to eGFP (mouse) (UniProt Q61164)
T3 sequence: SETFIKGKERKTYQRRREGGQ

[4] = target: T4, CTCF with alanine substitution of KTYQR, N(23–27), GFP fusion (F3H) (mouse) (UniProt Q61164)
T4 sequence: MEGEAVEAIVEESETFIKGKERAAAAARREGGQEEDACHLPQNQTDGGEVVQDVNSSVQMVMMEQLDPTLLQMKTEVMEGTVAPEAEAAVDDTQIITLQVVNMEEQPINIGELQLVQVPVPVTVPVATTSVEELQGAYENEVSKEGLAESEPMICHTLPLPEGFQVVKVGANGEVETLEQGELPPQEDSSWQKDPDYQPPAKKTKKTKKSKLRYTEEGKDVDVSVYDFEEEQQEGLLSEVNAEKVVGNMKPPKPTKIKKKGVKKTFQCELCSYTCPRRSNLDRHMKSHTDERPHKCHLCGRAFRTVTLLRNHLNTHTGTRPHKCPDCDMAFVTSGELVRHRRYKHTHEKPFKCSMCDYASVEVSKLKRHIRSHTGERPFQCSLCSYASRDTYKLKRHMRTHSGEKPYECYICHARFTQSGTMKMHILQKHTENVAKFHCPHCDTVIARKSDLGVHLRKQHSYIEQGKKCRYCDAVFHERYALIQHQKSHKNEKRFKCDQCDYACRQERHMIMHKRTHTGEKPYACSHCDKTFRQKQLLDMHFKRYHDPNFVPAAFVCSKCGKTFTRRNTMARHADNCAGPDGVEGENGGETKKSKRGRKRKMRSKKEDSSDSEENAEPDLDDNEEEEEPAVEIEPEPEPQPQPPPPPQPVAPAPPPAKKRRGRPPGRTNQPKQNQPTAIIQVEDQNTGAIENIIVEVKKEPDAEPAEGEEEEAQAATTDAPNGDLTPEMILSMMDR

[5] = target: T5, CTCF ΔN(1–265), GFP fusion (F3H) (mouse) (UniProt Q61164)
T5 sequence: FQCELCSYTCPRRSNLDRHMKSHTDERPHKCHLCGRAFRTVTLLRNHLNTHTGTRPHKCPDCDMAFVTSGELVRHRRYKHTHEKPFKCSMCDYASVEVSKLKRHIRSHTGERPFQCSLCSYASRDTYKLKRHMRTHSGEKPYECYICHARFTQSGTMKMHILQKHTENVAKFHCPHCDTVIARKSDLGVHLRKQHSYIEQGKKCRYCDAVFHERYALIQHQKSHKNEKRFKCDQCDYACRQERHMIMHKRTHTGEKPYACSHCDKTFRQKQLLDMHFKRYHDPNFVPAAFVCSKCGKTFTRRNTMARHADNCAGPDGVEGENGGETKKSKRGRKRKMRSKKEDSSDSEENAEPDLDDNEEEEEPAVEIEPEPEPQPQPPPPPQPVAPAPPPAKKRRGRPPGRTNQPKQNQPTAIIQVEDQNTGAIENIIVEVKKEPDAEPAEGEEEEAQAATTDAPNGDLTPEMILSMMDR

binding [1]: no binding | binding [2]: binds | binding [3]: binds | binding [4]: no binding | binding [5]: no binding
B1: PDS5A (mouse), mKate2 fusion (protein, UniProt Q6A026 1-1332)
chain: MDFTQPKPATALCGVVSADGKIAYPPGVKEITDKITTDEMIKRLKMVVKTFMDMDQDSEDEKQQYLPLALHLASEFFLRNPNKDVRLLVACCLADIFRIYAPEAPYTSHDKLKDIFLFITRQLKGLEDTKSPQFNRYFYLLENLAWVKSYNICFELEDCNEIFIQLFRTLFSVINNSHNTKVQMHMLDLMSSIIMEGDGVTQELLDSILINLIPAHKNLNKQSFDLAKVLLKRTVQTIEACIANFFNQVLVLGRSSVSDLSEHVFDLIQELFAIDPQLLLSVMPQLEFKLKSNDGEERLAVVRLLAKLFGSKDSDLATQNRPLWQCFLGRFNDIHVPVRLESVKFASHCLMNHPDLAKDLTEYLKVRSHDPEEAIRHDVIVTIITAAKRDLALVNDQLLGFVRERTLDKRWRVRKEAMMGLAQLYKKYCLHGEAGKEAAEKVSWIKDKLLHIYYQNSIDDKLLVEKIFAQYLVPHNLETEERMKCLYYLYASLDPNAVKALNEMWKCQNMLRSHVRELLDLHKQPTSEANCSAMFGKLMTIAKNLPDPGKAQDFVKKFNQVLGDDEKLRSQLELLISPTCSCKQADVCVREIARKLANPKQPTNPFLEMVKFLLERIAPVHIDSEAISALVKLMNKSIEGTADDEEEGVSPDSAIRSGLELLKVLSFTHPTSFHSAETYESLLQCLRMEDDKVAEAAIQIFRNTGHKIETDLPQIRSTLIPILHQKAKRGTPHQAKQAVHCIHAIFSNKEVQLAQIFEPLSRSLNADVPEQLITPLVSLGHISMLAPDQFASPMKSVVANFIVKDLLMNDRSTGEKNGKLWSPDEEVSPEVLAKVYLLRLLVRWLLGMKNNQSKSANSTLRLLSAMLVSEGDLTEQKRISKSDMSRLRLAAGSAIMKLAQEPCYHEIITPEQFQLCALVINDECYQVRQIFAQKLHKALVKLLLPLEYMAIFALCAKDPVKERRAHARQCLLKNISIRREYIKQNPMATEKLLSLLPEYVVPYMIHLLAHDPDFTRSQDVDQLRDIKECLWFMLEVLMTKNENNSHAFMKKMAENIKLTRDAQSPDESKTNEKLYTVCDVALCVINSKSALCNADSPKDPVLPMKFFTQPEKDFCNDKSYISEETRVLLLTGKPKPTGVLGTVNKPLSATGRKPYVRSAGTETGSNINANSELSPSAGSRSREQSSEASETGVSENEENPVRIISVTPVKNIDTVKNKEINSDQSTQGNISSDRGKKRIVTAAGAENIQKPDEKVDESGPPAPSKPRRGRRPKSESQGNATKNDDLNKPVSKGRKRAAGSQESLEAGNAKAPKLQDGAKKAVPAERQIDLQR
